In all, about 350,000 compounds went through this assay and about 9,900 (2.8%) were called active. This list was built around the results that the source calls inconclusive (neither active nor inactive); the mix of calls is not that of the screen. The call rests on the fitted dose curve; in most records, active means well fitted activation curve with a large enough effect; inconclusive means small, poorly fitted or top-dose-only effect; inactive means no such curve, though single readings can be large or run the other way. No potency is given beside an inconclusive call; the fits are too rough.
Test: A quantitative high throughput screen for small molecules that induce DNA re-replication in MCF 10a normal breast cells. Further: nearly all actives have a fitted effect of over 50% in size.
Conditions: MCF 10A DNA re-replication, Hoechst nuclear intensity, 48 h; series mostly up to 46.1 µM
Potency means the concentration at half of the fitted maximal effect; tags describe the fitted curve by direction and shape.

Row | Compound | Potency
1 | OC(CNCc1ccccc1F)COc1cccc2ccccc12 (stereo not given) | inconclusive [activator, single point]
2 | Cc1cccc(OCC(=O)OCC(=O)c2c(N)n(C)c(=O)n(C)c2=O)c1C | inconclusive [activator, single point]
3 | O=C(Nc1cccc(NC(=O)c2ccccc2)n1)c1ccccc1 | inconclusive [activator, single point]
4 | CCCCOc1ccc(CSCCN)cc1Cl | inconclusive [activator, single point]
5 | CCOC(=O)CSc1cc(-c2ccccc2)nc2ncnn12 | active: 2.31 µM
6 | O=C(COc1ccc(S(=O)(=O)N2CCOCC2)cc1Cl)NCCCn1ccnc1 | inconclusive [activator, single point]
7 | COc1ccc(-c2coc(CCC(=O)N3CCN(c4cc(C)ccc4C)CC3)n2)cc1 | inconclusive [activator, partial curve, poor fit]
8 | COc1ccc(NC(=O)Cn2nnc(-c3ccccc3N)n2)cc1OC | inconclusive [activator, single point]
9 | O=C(N/N=C\c1cccs1)c1ccccc1-n1cccc1 | inactive
10 | O=C1CC2c3ccccc3C1C1C(=O)N(Cc3ccccc3)C(=O)C21 (stereo not given) | inactive
11 | Cc1ccc(NC(=O)C(C)Sc2nnc(-c3cccnc3)n2-c2ccccc2)cc1 (stereo not given) | inactive
12 | COc1cc(C2NC(=O)C(C#N)=C(Nc3cccc(C)c3)S2)ccc1O (stereo not given) | inconclusive [activator, single point]
13 | CC(=O)Nc1ccc(C(=O)OCc2ccc(Br)cc2)cc1 | inconclusive [activator, single point]
14 | CCOc1ccc(C(C(=O)NCC2CCCO2)N(C(=O)c2snc(C(N)=O)c2N)c2ccccc2F)cc1 (stereo not given) | inconclusive [activator, partial curve, poor fit]
15 | Cc1ccc(NC(=O)Nc2c(C)n(C)n(-c3ccccc3)c2=O)cc1C | inconclusive [activator, single point]
16 | Cc1cccc(C)c1NC(=O)C(NC(=O)c1ccccn1)c1ccc([N+](=O)[O-])cc1 (stereo not given) | inconclusive [activator, single point]
17 | CC1(C)Cc2nc3sc4c(=O)n(CC(=O)NCc5ccccc5)cnc4c3cc2CO1 | active: 6.51 µM
18 | CC1CN(S(=O)(=O)c2ccc(C(=O)Nc3nnc(-c4ccco4)o3)cc2)CC(C)O1 (stereo not given) | inconclusive [activator, single point]
19 | Cc1ccccc1OCC(=O)OCC(=O)Nc1cc(S(C)(=O)=O)ccc1Cl | inactive
20 | C=CCOC(=O)c1ccc(-n2cnc(C)n2)nc1 | inactive
21 | COc1ccccc1/C=C/CN1CCSCC1 | inactive
22 | Cc1ccc(-c2csc(NC(=S)NC(=O)/C=C/c3ccco3)n2)cc1 | active: 1.64 µM
23 | CC(=O)c1ccc(N2CCN(C(=O)Nc3ccc(C(C)C)cc3)CC2)cc1 | inconclusive [activator, single point]

Row | Compound | Potency
24 | O=C(c1ccc(Cl)c(Cl)c1)N1CCC(=O)N(C(COCc2ccc(Cl)cc2)Cc2ccccc2)CC1 (stereo not given) | inconclusive [activator, single point]
25 | COC(=O)CNC(c1ccccc1)c1cc(Br)ccc1NS(=O)(=O)c1ccccc1 (stereo not given) | inactive
26 | CCN(CC)S(=O)(=O)c1ccc(OCC(=O)NCc2ccco2)cc1 | inactive
27 | CC(=O)Nc1ccccc1N(CC(O)Cn1c2ccccc2c2ccccc21)S(=O)(=O)c1ccc(C)cc1 (stereo not given) | inconclusive [activator, single point]
28 | CN(NC(=O)COc1ccccc1)C1=NS(=O)(=O)c2ccccc21 | inconclusive [activator, full curve, poor fit]
29 | Cc1ccc(NC(=O)c2nc[nH]c2C(=O)Nc2ccc(C)cc2)cc1 | inconclusive [activator, full curve, poor fit]
30 | CC(C)Oc1ccc(Cl)cc1Nc1nc(NCCO)nc(N2CCCC2)n1 | active: 23.1 µM
31 | CNc1ccc(Br)cc(C(=O)/C=C/c2cccc(OC)c2OC)c1=O | inactive
32 | COc1ccc(NC(=O)c2nc[nH]c2C(=O)N[C@H](C)c2ccccc2)cc1 | inconclusive [activator, single point]
33 | CCN(CC)c1ccc(/C=N/NC(=S)NCc2ccco2)cc1 | inconclusive [activator, single point]
34 | COc1ccc(N2CCN(C(=O)COC(=O)c3ccc(C)o3)CC2)cc1 | inactive
35 | O=C(NCC1(N2CCOCC2)CCCCC1)c1cccc(S(=O)(=O)N2CCc3ccccc3C2)c1 | active: 14.6 µM
36 | Cc1ccc(C)c(N2CCN(C(=O)c3ccc(CS(=O)Cc4cccc(Cl)c4)o3)CC2)c1 (stereo not given) | inconclusive [activator, single point]
37 | CC1(C)CC(=O)/C(=C\c2cccc([N+](=O)[O-])c2)C(C)(C)N1 | inconclusive [activator, single point]
38 | Cc1ccc(NC(=S)NC(NC(=O)c2ccco2)C(Cl)(Cl)Cl)cc1 (stereo not given) | active: 16.4 µM
39 | O=c1[nH]nc(Cc2ccc(-c3ccc(Cl)cc3)o2)c2ccccc12 | active: 8.2 µM
40 | O=C(c1ccc(COc2ccccc2Br)cc1)N1CCCCCC1 | inconclusive [activator, single point]
41 | CNC(=O)COc1ncnc2scc(-c3ccc(F)cc3)c12 | inconclusive [activator, partial curve]
42 | CCN(CC)C(=O)c1sc(NC(=O)c2ccc(Br)o2)c(C(=O)OC)c1C | inconclusive [activator, partial curve, poor fit]
43 | OCCN1CCN(c2ncnc3sc4c(c23)CCCC4)CC1 | inactive
44 | Cc1cccc(N2CCN(C(=O)CCCn3c(=O)[nH]c4ccsc4c3=O)CC2C)c1 (stereo not given) | inconclusive [activator, single point]
45 | O=C(Nc1cc(S(=O)(=O)N2CCCCC2)ccc1N1CCOCC1)c1ccc(C(F)(F)F)cc1 | inconclusive [activator, single point]
